The test relates to Plasmodium falciparum. Put plainly: Primary screen in NF54 nanoGlo assay, in single point, at 2uM, 72h; a lower Z score goes with more inhibition. To be noted: timepoint 72 hour. The class given is functional, Erythrocyte.

Where “and” joins values, the source holds several entries; their conditions need not be identical. Equal values may be shown once. Among all 150,000 compounds or so, about 540 (0.36%) showed an effect of 50% or more. Some of the results follow.

As a reminder, the % Inhibition is the drop in the measured response relative to a control, in per cent. With `CCc1nc(CN[C@H](c2ccc(F)cc2F)C(C)(C)C)n[nH]1`, the “% Inhibition” value is -14% and the Z score was 2.24.
The matching figures for `CC1CN(Cc2ccccc2)CC(C)C1NC(=O)Cc1ccon1` (stereo not drawn): -5% and 0.55.
The like results for `NCCOc1cccc(CC(=O)NC2(c3cc(F)cc(F)c3)CC2)c1` were, in that order, 14% and -1.8.
The like results for `O=C(O)CCCNC(=O)c1cccc(-c2ccoc2)c1` were, in that order, -5% and 0.94.
Regarding `Clc1cnc(NC2(CN3CCCCC3)CC2)nc1`, the “% Inhibition” value is reported as -6% and the Z score was 0.73.
The like results for `Cc1nc(C)c(CC(=O)Nc2nc(C)c(-c3ccccn3)s2)c(=O)[nH]1` were, in that order, -7% and 1.34.
Take `CC(C)Cc1ccc(CN2C[C@@H]3CC[C@H](C2)C(=O)N3)s1`: the “% Inhibition” value was -7% and the Z score was 1.21.
On to `CC(C)C1OCCC1CNc1ncnc(N)c1Cl` (stereo not drawn), for which the “% Inhibition” value is reported as 0% and the Z score stood at 0.09.
For `Cc1cc(C(=O)NCc2ccncc2)no1`, the “% Inhibition” value amounted to 43% and the Z score is -6.2.
In the case of `Cc1cc(C)c(NCc2ccc(N3N=C(c4ccccc4)C(C)(C)[C@H]3c3ccccc3)cc2)c(C)c1`, the “% Inhibition” value came to 1% and the Z score is listed as -0.06.
The like results for `Cc1ccc(C(=O)N2CCN(S(=O)(=O)c3cccnc3)CC2)cc1` were, in that order, -2% and 0.33.
For `COc1nscc1S(=O)(=O)Nc1cnn(CC(F)F)c1`, the “% Inhibition” value was -6% and the Z score came to 0.7.
Turning to `CC(C)Oc1ccc(-c2noc(Cc3nc(-c4ccc5c(c4)OCO5)cs3)n2)cc1`, the “% Inhibition” value is on record as -7% and the Z score is on record as 0.79.
For the compound `Cn1cc(-c2csc(NC(=O)c3cccc(Cl)c3)n2)cn1`, the “% Inhibition” value worked out at 7% and the Z score is listed as -1.37.
In the case of `Cc1ccc(C(=O)NC2CCN(c3ccccc3C(=O)N(C)C3CCCCC3)CC2)cc1`, the “% Inhibition” value is recorded as 1% and the Z score is -0.21.
Regarding `Cc1ccc(OCC(=O)c2ccc3c(c2)N(Cc2ccc(C(=O)NCC4CC4)o2)C(=O)CO3)cc1C`, the “% Inhibition” value worked out at 3% and the Z score is -0.42.
In the case of `CCN=C(NCCc1csc(C)n1)NCc1ccc(OC)cc1`, the “% Inhibition” value is -14% and the Z score was found to be 1.44.
The like results for `C[C@H](NCCc1nc(C2CC2)cs1)c1nc2c(s1)CCC2` were, in that order, -14% and 1.28.
The matching figures for `CC(=O)N(CCC(=O)N1CCOC2CCCC21)Cc1ccccc1` (stereo not drawn): -4% and 0.45.
On to `CC(C)N(C(=O)C[n+]1ccc(C(=O)NCc2ccccc2)cc1)c1ccccc1`, for which the “% Inhibition” value is on record as 9% and the Z score is given as -0.77.
In the case of `Nc1nc(N2CCC(n3cc(C(=O)O)cn3)CC2)nc2ccccc12`, the “% Inhibition” value is on record as -7% and the Z score was 1.35.
As to `Cc1cc(Cl)ccc1CN[C@H](C)CCO`, the “% Inhibition” value was -3% and the Z score turned out to be 0.4.
Turning to `Nc1ccc(-c2nc3ccc(F)cc3n2C2CC2)cc1`, the “% Inhibition” value is given as -13% and the Z score is reported as 1.71.
The like results for `CN(C)C[C@H]1CCN(C(=O)CCC2CCCC2)C[C@@H]1O` were, in that order, -9% and 1.13.
As for `CC(C)CC[C@@H](CCNC1CCN(C)CC1)c1ccc(Cl)cc1`, the “% Inhibition” value is listed as 63% and the Z score was -7.69.
With `CCC(NC(=O)NCC(O)c1ccccc1F)c1c(C)nn(C)c1C` (stereo not drawn), the “% Inhibition” value is -19% and the Z score is on record as 2.18.
With `O=S(=O)(Cc1ccccc1)NCCOc1ccc2c(c1)OCO2`, the “% Inhibition” value is given as -14% and the Z score was determined as 2.67.
As for `C#CCOc1cc([C@H]2CC(=O)Nc3c2ncn3-c2cccnc2)ccc1OC`, for the setting “2 µM”, the “% Inhibition” value was -3% and -2%; the Z score was 0.45 and 0.29.
For the compound `Brc1cncc(NCCOCC2CC2)c1`, the “% Inhibition” value is recorded as -19% and the Z score is given as 2.14.
The matching figures for `CC1(C)C2CN(C(=O)c3ccoc3)CC21` (stereo not drawn): -7% and 0.68.
The like results for `Cc1nc(-c2ccc(Cl)c(S(=O)(=O)N3CCC[C@H](C(=O)NCCc4ccccc4)C3)c2)no1` were, in that order, 10% and -1.33.
Turning to `CC1(C)CN(C(=O)c2ccc(S(C)(=O)=O)o2)c2ccccc2O1`, the “% Inhibition” value is recorded as 2% and the Z score is recorded as -0.26.
As to `COCCN(CCOC)CC(=O)Nc1cccc(C(F)(F)F)c1`, the “% Inhibition” value is reported as 2% and the Z score is -0.21.
In the case of `O=C1N(Cc2cccnc2)CCC[C@@]12CCN(Cc1ccccc1F)C2`, the “% Inhibition” value is listed as -9% and the Z score is given as 0.8.
On to `COc1ccc(CCC(=O)N2CCCN(C(=O)C[C@H]3C[C@@H](C(C)=O)C3(C)C)CC2)cc1`, for which the “% Inhibition” value worked out at 12% and the Z score is recorded as -1.14.
The like results for `CCOC(=O)[C@H]1C[C@@H]2NCCCCCCNC(=O)[C@@H]2C1` were, in that order, -5% and 1.02.
Take `Cn1ccnc1[C@@]1(CNS(=O)(=O)c2cnc3ccc(F)cc3c2)NC(=O)NC1=O`: the “% Inhibition” value is given as -5% and the Z score was determined as 0.5.
On to `CC(=O)N[C@H]1CCCN(Cc2cccn2Cc2ccccc2C#N)C1`, for which the “% Inhibition” value was -13% and the Z score is 2.21.
Turning to `COc1cccc(C2(NC(=O)c3cc(C)no3)CCOCC2)c1F`, the “% Inhibition” value is recorded as 9% and the Z score is -1.17.
For `CC(c1nc2cc(Cl)ccc2[nH]1)N(C)CC1CNC(=O)C1` (stereo not drawn), the “% Inhibition” value is recorded as -8% and the Z score came out at 0.88.
Take `CC[C@@]1(C)COCCN1C(=O)CCCc1ccc2c(c1)CC(=O)N2`: the “% Inhibition” value is -8% and the Z score worked out at 0.86.
The like results for `O=C(CCc1ccc2c(c1)OCO2)N1CCC[C@H](c2[nH]ncc2-c2ccc(F)c(F)c2)C1` were, in that order, -15% and 2.03.
The matching figures for `CC1(C)CC(NC(=O)C2CCN(S(=O)(=O)c3ccc(C(C)(C)C)cc3)CC2)CC(C)(C)N1`: 1% and -0.16.
`CCc1cnc(NC(=O)c2ccoc2C2CC2)o1`: the “% Inhibition” value is -1% and the Z score amounted to 0.1.
The matching figures for `Cc1csc(-c2c[nH]c([C@H]3CC(=O)N(C4CCCC4)C3)n2)c1`: 1% and -0.21.
Take `COc1ccc(-c2ccc3[nH]c(CO)nc3c2)cn1`: the “% Inhibition” value is reported as -24% and the Z score turned out to be 2.62.
The like results for `CNC(=O)C1CC2CCCCC2N1S(=O)(=O)c1ccc2c(c1)OCCO2` (stereo not drawn) were, in that order, 4% and -0.55.
Turning to `O=C(N[C@H](CO)CN1CCOCC1)c1cn2c(n1)CCC2`, the “% Inhibition” value came out at 7% and the Z score is -0.98.
For `Cc1nc(NC(=O)NCCn2ncnn2)sc1C`, the “% Inhibition” value is 31% and the Z score was -4.22.
The like results for `Cc1nnc(CN(C)OCc2ccccc2)o1` were, in that order, -2% and 0.15.
For `CS(=O)(=O)N1C2CCC1CC(NC(=O)Cn1cc(-c3ccc(F)cc3)cn1)C2` (stereo not drawn), the “% Inhibition” value is on record as -24% and the Z score worked out at 3.02.
The like results for `NC(=O)c1ccc(N2CC[C@H](OCCCc3ccccc3)C2)nn1` were, in that order, -5% and 0.96.
In the case of `CC(C)c1nc(CN(C)[C@@H](CN(C)C)c2ccccc2)co1`, the “% Inhibition” value was 11% and the Z score is -1.44.
The like results for `CN1CCCC[C@@H](C(=O)NCc2nccs2)C1=O` were, in that order, 4% and -0.65.

Values taken from ChEMBL document CHEMBL4888484, “Replenishing the malaria drug discovery pipeline: Screening and hit evaluation of the MMV Hit Generation Library 1 (HGL1) against asexual blood stage Plasmodium falciparum ,using a nano luciferase reporter read-out” (2022).
